The values that follow come from PubChem BioAssay AID1745853 (National Center for Advancing Translational Sciences (NCATS), 2022).

The structures appear in SMILES notation. The list shows a part of the results. The main result of the screen is listed elsewhere. These columns were measured beside it and carry no call.

What all share (experiment): Primary Screen for Target Class Profiling of Small Molecule Inhibitors of Methyltransferases
The target of experiment [1] is Glycine N-methyltransferase (Homo sapiens) (UniProt Q14749). The settings on record: purified enzyme, MTase-Glo SAH luminescence; measured here: GNMT inhibition; at 40 µM; stronger effect = lower value. The method, boiled down:
(§1)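 Each enzyme was reacted with SAM and its substrate, with compounds tested once at 40 uM; SAH formed was read by MTase-Glo luminescence.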

Experiment [2] concerns the target Guanidinoacetate N-methyltransferase (Homo sapiens) (UniProt Q14353). The note with it: purified enzyme, MTase-Glo SAH luminescence; measured here: GAMT inhibition; at 40 µM; stronger effect = lower value. A digest of the protocol: as §1
The target in experiment [3] is Histamine N-methyltransferase (Homo sapiens) (UniProt P50135). The note with it: purified enzyme, MTase-Glo SAH luminescence; measured here: HNMT inhibition; at 40 µM; stronger effect = lower value. The method, boiled down:
as §1

Experiment [4] deals with Nicotinamide N-methyltransferase (Homo sapiens) (UniProt P40261). The settings on record: purified enzyme, MTase-Glo SAH luminescence; measured here: NNMT inhibition; at 40 µM; stronger effect = lower value. A digest of the protocol:
as §1

The target in experiment [5] is Phenylethanolamine N-methyltransferase (Homo sapiens) (UniProt P11086). The note with it: purified enzyme, MTase-Glo SAH luminescence; measured here: PNMT inhibition; at 40 µM; stronger effect = lower value. A digest of the protocol:
as §1
On the % scale 0 is the no-effect control and ±100 the full control effect.

`O=C(c1cnccn1)N1CCC(c2nc(C3CC3)no2)C1` (stereo not given): the activity change, negative = inhibition in experiment [1] was 0.827%; in experiment [2], 2.05%; in experiment [3], 2.57%; in experiment [4], -1.79%; in experiment [5], 0.074%.

On to `CCOC(=O)c1cc2n(n1)CC(C)(C(=O)NCCC(C)C)N(Cc1ccc3c(c1)OCO3)C2=O` (stereo not given), for which the activity change, negative = inhibition is -0.116% in experiment [1]; 0% in experiment [2]; -0.872% in experiment [3]; 3.01% in experiment [4]; -3.13% in experiment [5].

`COCCc1noc(-c2ccc(N(C)Cc3ccnc(C)c3)nc2)n1`: the activity change, negative = inhibition in experiment [1] was 0.088%; in experiment [2], 1.28%; in experiment [3], -4.7%; in experiment [4] it was -3.1%; in experiment [5], 2.8%.

For the molecule `C=C1C(=O)O[C@@H]2/C=C(\C)C(=O)/C=C/[C@](C)(O)C[C@@H](OC(=O)C(C)C)[C@@H]12`, the activity change, negative = inhibition in experiment [1] is 0%; in experiment [2], 1.79%; in experiment [3] it was 6.33%; in experiment [4], -13.7%; in experiment [5], -9.04%.

For `O=C(Nc1ccc2c(N3CCOCC3)ncnc2c1)c1cccc(Cl)c1`, the activity change, negative = inhibition in experiment [1] was -52.3%; in experiment [2], -42.2%; in experiment [3] it was -83.1%; in experiment [4] it was -39%; in experiment [5], -23.7%.

For `CC1(C(=O)NC2CCCC2)Cn2c(cc3sccc32)C(=O)N1Cc1ccccc1Cl` (stereo not given), the activity change, negative = inhibition is -1.32% in experiment [1]; 3.88% in experiment [2]; 2.35% in experiment [3]; -9.04% in experiment [4]; -5.3% in experiment [5].

For the molecule `COC(=O)c1cc2n(n1)CC(C)(C(=O)NC1CCCCCC1)N(Cc1cccc(OC)c1OC)C2=O` (stereo not given), the activity change, negative = inhibition in experiment [1] was 0.484%; in experiment [2] it was 6.4%; in experiment [3] it was -3.96%; in experiment [4] it was -5.06%; in experiment [5], 0.883%.

`CC(C)Cn1c(=O)c2ccccc2n2c(SCC(=O)Nc3ccc(F)cc3)nnc12`: the activity change, negative = inhibition in experiment [1] was -0.705%; in experiment [2] it was 0%; in experiment [3], 10.8%; in experiment [4], -5.91%; in experiment [5], 3.91%.

`COc1ccc(CNC(=O)c2cc3n(n2)CC(C)(C(=O)NCc2ccc(C)cc2)N(C)C3=O)cc1` (stereo not given): the activity change, negative = inhibition in experiment [1] worked out at 8.12%; in experiment [2], 0.553%; in experiment [3] it was 5.57%; in experiment [4], 8.83%; in experiment [5], 6.84%.

For `COCC1OC(n2cnc3c(=O)[nH]cnc32)C(O)C1O` (stereo not given), the activity change, negative = inhibition in experiment [1] was 5.76%; in experiment [2], 6.36%; in experiment [3], -7.02%; in experiment [4], -5.76%; in experiment [5], -0.003%.

Regarding `CN(C)S(=O)(=O)c1ccc(CNC(=O)C2CCCN(CC(N)=O)C2)cc1` (stereo not given), the activity change, negative = inhibition in experiment [1] was -3.84%; in experiment [2], -6.38%; in experiment [3] it was -2.8%; in experiment [4], -6.86%; in experiment [5] it was 2.02%.

For the molecule `COCCN(C)C[C@@H]1CN(C(=O)Cn2ncc3ccccc3c2=O)C[C@@H]1CO`, the activity change, negative = inhibition was -8.29% in experiment [1]; -9.95% in experiment [2]; -6.81% in experiment [3]; -13.7% in experiment [4]; -17.9% in experiment [5].

Turning to `CCCn1c(=O)c2ccccc2n2c(SCC(=O)NC3CCCCC3)nnc12`, the activity change, negative = inhibition in experiment [1] came out at 3.17%; in experiment [2] it was 6.3%; in experiment [3], 4.5%; in experiment [4], 1.16%; in experiment [5], 3.82%.

On to `Cc1ccccc1NC(=O)N1CCC(N(CCC(C)C)C2CCOCC2)CC1`, for which the activity change, negative = inhibition is -5.87% in experiment [1]; -6.8% in experiment [2]; -1.67% in experiment [3]; -9.7% in experiment [4]; -1.65% in experiment [5].

Consider `CC1=C(CC/C(C)=C/C(=O)O)[C@@]2(C)CCCC(C)(C)C2CC1=O` (stereo not given in full), for which the activity change, negative = inhibition is -5.37% in experiment [1]; -3.92% in experiment [2]; 6.32% in experiment [3]; -20.4% in experiment [4]; 1.64% in experiment [5].

`CC1(C(=O)NC2CCCCC2)Cn2c(nc3ccccc32)C(=O)N1Cc1ccc(F)cc1` (stereo not given): the activity change, negative = inhibition in experiment [1] is 1.62%; in experiment [2], 0%; in experiment [3] it was 2.73%; in experiment [4], 2.78%; in experiment [5] it was -2.68%.

With `CN(CCc1ccccn1)C(=O)c1cn(Cc2cccc(C(F)(F)F)c2)nn1`, the activity change, negative = inhibition in experiment [1] was -4.2%; in experiment [2] it was -6.6%; in experiment [3], -1.61%; in experiment [4], -10.7%; in experiment [5] it was -8.4%.

As to `COC1CC(=O)C23C(=O)NC(CC(C)C)C2C(C)C(C)=CC3/C=C(\C)CCC1O` (stereo not given), the activity change, negative = inhibition in experiment [1] was 1.82%; in experiment [2], 8.29%; in experiment [3] it was 7.01%; in experiment [4], -6.95%; in experiment [5], 4.98%.

Turning to `O=C(c1ccc2nccnc2c1)N1CCCCC1`, the activity change, negative = inhibition was 7.34% in experiment [1]; 6.93% in experiment [2]; 4.38% in experiment [3]; -6.5% in experiment [4]; 2.3% in experiment [5].

Regarding `Fc1cccc(Nc2ncc(-c3cncnc3)c3c2OCC3)c1`, the activity change, negative = inhibition in experiment [1] was -6.66%; in experiment [2], -7.33%; in experiment [3], -4.29%; in experiment [4], -9.51%; in experiment [5], -9.44%.

With `Nc1cc(C(=O)N2CCc3onc(-c4ccc(-c5ccccc5)cc4)c3C2)[nH]n1`, the activity change, negative = inhibition in experiment [1] was -7.87%; in experiment [2], -2.43%; in experiment [3] it was -4.82%; in experiment [4], -2.86%; in experiment [5] it was -0.434%.

Turning to `COc1cccc(CNC(=O)Cn2nc3n(CC(C)C)c(=O)c4ccccc4n3c2=O)c1`, the activity change, negative = inhibition in experiment [1] is -5.86%; in experiment [2], 2.39%; in experiment [3] it was -3.63%; in experiment [4], -12.9%; in experiment [5], -11.6%.

Take `CCc1nnc2ccc(NC3CC3)nn12`: the activity change, negative = inhibition in experiment [1] was -8.06%; in experiment [2] it was -6.29%; in experiment [3], -3.1%; in experiment [4] it was -18.1%; in experiment [5], -12.1%.

Turning to `CC(=O)OCC1OC(OC2COC(OC3COC(OC4C(OC5C(CO)OC(OC6CCC7(C)C(CCC8(C)C7CC=C7C9CC(C)(C)CCC9(C(=O)OC9OC(CO)C(O)C(O)C9OC9OCC(OC%10OCC(O)(CO)C%10O)C(O)C9O)C(O)CC78C)C6(C)C)C(O)C5O)OCC(O)C4O)C(O)C3O)C(O)C2O)C(OC(=O)/C=C/c2ccccc2)C(O)C1OC(C)=O` (stereo not given), the activity change, negative = inhibition was 0.243% in experiment [1]; 17.5% in experiment [2]; 10.9% in experiment [3]; 7.15% in experiment [4]; 7.43% in experiment [5].

Turning to `C=CCn1cc(CN(CC)Cc2ccc(OC)cc2)c(C)n1`, the activity change, negative = inhibition is -4.3% in experiment [1]; -6.67% in experiment [2]; -2.22% in experiment [3]; -14.6% in experiment [4]; -14.7% in experiment [5].

Take `O=C(NC1CCOCC1)c1ccc(-c2cc(-c3cn[nH]c3-c3ccccn3)ccn2)cc1`: the activity change, negative = inhibition in experiment [1] was -7.56%; in experiment [2] it was 2.67%; in experiment [3], 6.08%; in experiment [4], -12.3%; in experiment [5], 0.89%.

Take `COc1ccccc1CNC(=O)c1cc2n(n1)CC(C)(C(=O)NCc1ccc(C)cc1)N(C)C2=O` (stereo not given): the activity change, negative = inhibition was 5.3% in experiment [1]; 0% in experiment [2]; 4.72% in experiment [3]; 3.72% in experiment [4]; 4.04% in experiment [5].

On to `C/C=C(\C)C1C(C)=CC2CCC(OS(=O)(=O)O)C(C)C2C1/C=C/C=C/C(=O)O` (stereo not given), for which the activity change, negative = inhibition in experiment [1] is -7.38%; in experiment [2], -5.62%; in experiment [3], 4.5%; in experiment [4] it was -19.5%; in experiment [5] it was 0.266%.

Take `C[C@@]12CC3(S(=O)(=O)O)OC(O1)[C@]1(COC(=O)c4ccccc4)[C@H]3C[C@]21O[C@@H]1O[C@H](CO)[C@@H](O)[C@H](O)[C@H]1O`: the activity change, negative = inhibition in experiment [1] was -1.8%; in experiment [2] it was -7.5%; in experiment [3], -7.84%; in experiment [4] it was -15.5%; in experiment [5] it was -3.5%.
